Some of the results follow. These are noisy estimates, calculated here from bound and input reads.
These sequences were tested against T1, Pho4 (S. cerevisiae) (UniProt P07270) (assay: relative binding free energy (BET-seq); higher = weaker binding). Details: reference: library average.
T1 sequence: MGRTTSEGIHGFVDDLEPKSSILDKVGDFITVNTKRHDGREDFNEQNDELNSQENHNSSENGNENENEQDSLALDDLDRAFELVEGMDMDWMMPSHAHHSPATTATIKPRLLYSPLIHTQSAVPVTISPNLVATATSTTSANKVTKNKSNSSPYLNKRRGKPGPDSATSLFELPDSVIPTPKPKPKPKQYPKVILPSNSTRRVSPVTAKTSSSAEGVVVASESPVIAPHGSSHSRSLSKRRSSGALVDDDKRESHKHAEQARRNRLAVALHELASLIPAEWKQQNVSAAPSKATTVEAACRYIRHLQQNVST

Sequence	relative binding free energy [kcal/mol]
AAGTTCACGTGGTGAA	0.23
AGCGGCACGTGGTGCT	-0.21
TTGTTCACGTGGTAGT	0.24
CGAGTCACGTGTATGT	0.08
GGTGACACGTGTATAT	0.02
GAGTTCACGTGTTGGA	0.39
TTATTCACGTGGGTGT	0.05
TTGAGCACGTGATGTC	0.03
AGACTCACGTGGGGAT	0.05
TATTTCACGTGTGTCT	0.25
TGTCTCACGTGGATGG	0.18
TCGAGCACGTGGTGGG	-0.2
AAGCGCACGTGGGTAT	-0.24
TTCGTCACGTGGATCT	0.23
TGTGACACGTGGGGGC	-0.18
TGGCGCACGTGTTTCA	0.05
ATTAACACGTGAAAGT	0.27
GTTCTCACGTGTAAGT	0.43
TGAGCCACGTGTTGAG	-0.08
ATCGTCACGTGTGGGG	0.05
TCAAGCACGTGTTAGT	-0.04
GGTGACACGTGTAATA	0.15
TGGAGCACGTGGGTAA	-0.11

Sequence	relative binding free energy [kcal/mol]
AATAGCACGTGAATGG	0.31
GAAATCACGTGTGGTT	0.31
GATTGCACGTGCTTGG	0.09
GCTTACACGTGGATGT	0.29
TATTGCACGTGATTGT	0.14
ATAGGCACGTGATGGC	0.07
TATGGCACGTGGGTGA	-0.15
TGTGTCACGTGAGGCT	0.19
ATAATCACGTGATAGG	0.11
AATTACACGTGTAGTG	0.08
GGCGGCACGTGTGGAG	-0.03
ATGGGCACGTGGAGAC	-0.04
TGCGTCACGTGTGTTA	0.22
ATGTCCACGTGGTTGA	-0.12
TTATTCACGTGATTAC	0.49
GTTATCACGTGGTATG	0
CGATGCACGTGGGTAT	-0.11
GGCAGCACGTGGTCGG	-0.24
CGATGCACGTGTTGGC	0.23
TTTGTCACGTGCGAAT	0.02
GGTCACACGTGCGGTA	0.08
TAGCGCACGTGTAAGT	0.16
AGGTACACGTGTTTGC	0.05

Sequence	relative binding free energy [kcal/mol]
AATTTCACGTGTGGCG	0.46
ATGTTCACGTGGCGTT	0.22
TTGAGCACGTGGTGTT	-0.13
GAGGGCACGTGAGGTC	0.08
TGGTACACGTGATCAT	0.18
TGGAGCACGTGAGAGA	0.25
TGTCGCACGTGGCTGG	-0.12
GGATTCACGTGCGTTT	0.2
GCTGGCACGTGAATGT	0.03
TTGGACACGTGAGGAA	0.33
GGAGACACGTGGTTGG	-0.08
AATTGCACGTGTTCTT	0.03
GTTATCACGTGACGGA	0.39
TTTGGCACGTGAATTA	0.06
AGTGACACGTGTGGCA	0.01
CGGGGCACGTGTGGTG	-0.09
TGCGTCACGTGCTAGT	-0.04
TATGGCACGTGCGGGT	-0.15
ATTTGCACGTGGAGAT	0.09
TAGTCCACGTGATGGG	-0.04
TCACTCACGTGTGAGT	0.34
CTTGACACGTGAATGG	0.24
ATGTCCACGTGTTGAT	-0.01

Sequence	relative binding free energy [kcal/mol]
GGGGTCACGTGTGTTT	0.24
TAAATCACGTGATGGT	0.14
AAAGTCACGTGGATAA	0.16
CAGGGCACGTGCGGTA	-0.06
GGTGTCACGTGGGAGC	0.23
GTTCTCACGTGTAATG	0.19
ACTTGCACGTGCTGGT	-0.08
GCCGGCACGTGCTGGG	-0.01
GGTGACACGTGTCGTA	0.05
TGGGTCACGTGGCTGC	0.07
ACTTTCACGTGCGGTT	0.4
CTGCTCACGTGGTTGT	0.11
GTAGGCACGTGGTCCG	-0.21
GCGGTCACGTGTTTGA	0.2
GTATTCACGTGATGGG	0.33
TAGTTCACGTGTAGGA	0.27
TTCGGCACGTGTGCTG	0
AGCGTCACGTGGTTGC	-0.06
GGTGGCACGTGCCTTT	-0.01
TGTACCACGTGGGTGG	-0.16
CGTTTCACGTGGTTAG	0.29
CTTTGCACGTGTGTCT	-0.02
TGTATCACGTGTCATT	0

Sequence	relative binding free energy [kcal/mol]
TTGATCACGTGCGGAT	0.13
ACTATCACGTGTTTTG	0.17
CCGTTCACGTGGTTTG	0.25
GGTTGCACGTGAGGCT	0.17
AGGGTCACGTGCGCGG	-0.1
TGATTCACGTGTAAAG	0.27
TTATACACGTGGCGAT	0.08
GTCTGCACGTGAGAGT	0.16
GTGCGCACGTGTGTAA	-0.13
GAGGGCACGTGGTGCT	-0.07
TAAGTCACGTGGCGTA	-0.09
TTAAGCACGTGGAGGC	-0.12
TATGACACGTGTGTGG	0
GGCGGCACGTGGGAGC	-0.15
TGTAACACGTGCCGGG	-0.07
TTTATCACGTGAAGAT	0.35
ATGGCCACGTGTAGTG	0.02
TGGAGCACGTGAGGCC	0.11
ATATTCACGTGGTTTG	0.2
ATTATCACGTGATTCG	0.32
AAGAGCACGTGGGATG	-0.21
ATATACACGTGGGGGT	-0.08
AGGAACACGTGGAGGA	0

Reference: the BET-seq Pho4 binding data (Le et al. 2018)
